PMC4336329 (PLoS ONE, 2015)
The whole screen tested about 310,000 compounds, of which about 14,000 (4.5%) showed an effect of 50% or more. Effects have a minus sign here. Some of the results follow.

biological target: human ether-à-go-go-related gene (hERG) potassium channel (human, UniProt Q12809); assay: primary screen, population patch clamp on CHO cells stably expressing hERG
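Further: peak tail current of the secondary pulse compared with the same well before compound.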

Chain of human ether-à-go-go-related gene (hERG) potassium channel (Q12809 whole entry, looked up): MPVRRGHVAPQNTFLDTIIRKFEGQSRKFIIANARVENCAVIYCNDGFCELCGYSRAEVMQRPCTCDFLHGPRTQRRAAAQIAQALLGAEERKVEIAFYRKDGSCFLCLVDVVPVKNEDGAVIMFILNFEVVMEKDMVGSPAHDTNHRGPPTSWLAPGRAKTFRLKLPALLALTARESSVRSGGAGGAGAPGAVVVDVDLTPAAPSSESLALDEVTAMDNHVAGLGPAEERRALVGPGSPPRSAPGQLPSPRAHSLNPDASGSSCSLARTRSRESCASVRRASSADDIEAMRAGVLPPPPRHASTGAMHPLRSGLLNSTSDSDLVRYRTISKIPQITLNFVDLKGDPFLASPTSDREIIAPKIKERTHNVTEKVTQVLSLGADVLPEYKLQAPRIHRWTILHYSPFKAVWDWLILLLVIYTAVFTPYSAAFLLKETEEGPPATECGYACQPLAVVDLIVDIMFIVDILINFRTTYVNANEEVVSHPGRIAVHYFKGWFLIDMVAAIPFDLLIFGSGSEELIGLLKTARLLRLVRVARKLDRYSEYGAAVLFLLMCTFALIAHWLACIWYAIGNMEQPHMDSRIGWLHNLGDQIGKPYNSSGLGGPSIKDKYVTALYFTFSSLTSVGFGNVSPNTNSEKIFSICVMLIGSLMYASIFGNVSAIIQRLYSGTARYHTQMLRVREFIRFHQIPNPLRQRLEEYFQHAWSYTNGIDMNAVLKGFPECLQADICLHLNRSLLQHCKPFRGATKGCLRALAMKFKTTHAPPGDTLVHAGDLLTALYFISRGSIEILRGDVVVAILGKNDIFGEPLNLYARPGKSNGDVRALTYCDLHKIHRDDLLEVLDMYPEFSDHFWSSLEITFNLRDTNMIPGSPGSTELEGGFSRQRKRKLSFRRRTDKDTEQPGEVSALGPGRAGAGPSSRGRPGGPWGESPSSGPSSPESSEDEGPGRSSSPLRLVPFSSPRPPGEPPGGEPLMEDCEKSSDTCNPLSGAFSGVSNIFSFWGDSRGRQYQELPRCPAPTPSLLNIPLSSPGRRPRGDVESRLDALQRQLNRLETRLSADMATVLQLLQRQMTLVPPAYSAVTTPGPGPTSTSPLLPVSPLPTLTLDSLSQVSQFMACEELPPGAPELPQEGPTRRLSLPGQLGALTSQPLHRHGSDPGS

Going from `Cc1cc(S(=O)(=O)N2CCCC2)ccc1OCC(=O)N1CCOCC1` to `CN1CCCN(S(=O)(=O)c2ccc(O)c(C(=O)O)c2)CC1.Cl`, the “hERG current change (%, negative = inhibition) at 10uM” value rises from 3.1% to 15.6%.

Going from `CCCCCCC#Cc1ccc2c(c1)COc1c3ccccc3nn1-2` to `O=C(CCCCCn1c(SCC(=O)c2ccccc2)nc2ccccc2c1=O)NCc1ccco1`, the “hERG current change (%, negative = inhibition) at 10uM” value falls from 16.5% to 10.8%.

Going from `CCN1CCCC1CNC1=NCCCCC1` (stereo not shown) to `COc1ccc(OC)c(CN2CCCC(C(=O)N3CCCCC3)C2)c1.O=C(O)C(=O)O` (stereo not shown), the “hERG current change (%, negative = inhibition) at 10uM” value falls from 7.64% to -32.1%.

First: COc1ccc(NC(=O)CN(C)CC(=O)Nc2ccccc2SC)cc1
Second: CCOCC(=O)Nc1ccc(C(=O)Nc2ccccc2Cl)cc1
The “hERG current change (%, negative = inhibition) at 10uM” value of the first is higher: -1.63% for the first, -3.8% for the second.

Going from `O=C(CCN1C(=O)c2ccncc2C1=O)NCc1ccc(Cl)cc1` to `O=C(Nc1ccc(Cl)cc1)OCc1cncs1`, the “hERG current change (%, negative = inhibition) at 10uM” value rises from -51.9% to -12.2%.

Going from `Cn1ccsc1=NC(=O)c1ccc(CS(C)(=O)=O)cc1` to `CSc1cccc(NC(=O)CN(c2cccc(C)c2)S(C)(=O)=O)c1`, the “hERG current change (%, negative = inhibition) at 10uM” value falls from 22% to -23.5%.

First: CCOC(=O)/C(C#N)=C\c1ccc(CC)s1
Second: CC(C)OC(=O)/C(C#N)=C/c1c[nH]c2ccccc12
The “hERG current change (%, negative = inhibition) at 10uM” value of the first is lower: -3.59% for the first, 1.55% for the second.

Compared with `N#C/C(=N\Nc1ccccc1F)C(=N)N1CCCCC1`, `O=C(CSCc1cccc(Cl)c1)N/N=C/c1ccc(OCC(=O)N2CCCCC2)cc1` is higher in “hERG current change (%, negative = inhibition) at 10uM” value: -12.2% for the first, -11.7% for the second.

First: COc1ccc(C(=O)C[n+]2cccc3cc(OC)ccc32)cc1.[Br-]
Second: COc1ccc(NC(=O)N(Cc2ccc3c(c2)OCO3)C2CC(=O)N(c3ccc(OC)cc3)C2=O)cc1 (stereo not shown)
The “hERG current change (%, negative = inhibition) at 10uM” value of the first is higher: 6.04% for the first, -4.75% for the second.

Going from `Nc1cccc(C2=Nc3cccc4cccc(c34)N2)c1` to `Nc1cccc(/C=C/c2ccncc2)c1`, the “hERG current change (%, negative = inhibition) at 10uM” value falls from 15.6% to 2.01%.

First: COc1cccc(OC(=O)N2CCOCC2)c1
Second: COc1ccc(C(=O)N/N=C/c2sc(N3CCOCC3)nc2-c2ccccc2)cc1OC
The “hERG current change (%, negative = inhibition) at 10uM” value of the first is lower: 8.3% for the first, 9.37% for the second.

First: COC1(OC)N=C(N)C2(C#N)C(c3ccc(C)cc3)C12C#N (stereo not shown)
Second: COc1ccc(N2CCN(C(=O)C3(S(=O)(=O)c4ccc(C)cc4)CC3)CC2)cc1
The “hERG current change (%, negative = inhibition) at 10uM” value of the first is higher: 10.1% for the first, -53.7% for the second.

Compared with `Cc1cc(C)cc(N2C(=O)CSC2c2ccccn2)c1` (stereo not shown), `COCCN(CCOc1cc(C)cc(C)c1)Cc1ccc(Cl)cc1` is higher in “hERG current change (%, negative = inhibition) at 10uM” value: 7.31% for the first, 18.1% for the second.

Going from `CC(CCc1ccccc1)NC(=O)COc1cc(F)ccc1[N+](=O)[O-]` (stereo not shown) to `CC(C)NC(=O)c1ccccc1NC(=O)Cc1ccc([N+](=O)[O-])cc1`, the “hERG current change (%, negative = inhibition) at 10uM” value falls from -18.7% to -33.8%.

First: CCN(C1CCCCC1)S(=O)(=O)c1ccc(-n2cnnn2)c(C)c1
Second: CC(=O)Nc1ccc(S(=O)(=O)NNC(=O)C2CCCCC2)cc1
The “hERG current change (%, negative = inhibition) at 10uM” value of the first is lower: -11.1% for the first, -0.821% for the second.

First: O=C(Nc1ccc(F)cc1F)c1cc(=O)n(-c2ccccc2)c(=O)[nH]1
Second: O=C(O)c1cccc([N+](=O)[O-])c1C(=O)Nc1ccc2ccccc2c1
The “hERG current change (%, negative = inhibition) at 10uM” value of the first is higher: 6.37% for the first, 0.663% for the second.

Going from `CCN(CC)S(=O)(=O)c1cccc(C(=O)N/N=C/c2c(C)nn(-c3ccccc3)c2Cl)c1` to `CCN(CC)S(=O)(=O)c1ccc(Cl)c(NC(=O)c2ccccc2C)c1`, the “hERG current change (%, negative = inhibition) at 10uM” value rises from 6.89% to 10.7%.

Compared with `O=C(O)CCC(=O)Nc1ccc(OCC2CCCO2)cc1` (stereo not shown), `O=C(COC(=O)C1CCC1)Nc1ccc(Oc2ccccc2)cc1` is lower in “hERG current change (%, negative = inhibition) at 10uM” value: 27.8% for the first, 0.477% for the second.

First: CCN(CC)S(=O)(=O)c1cccc(NC(=O)COC(=O)CCC(=O)c2cccs2)c1
Second: CCN(CC)S(=O)(=O)c1ccc(Oc2cccc(C(C)=O)c2)nc1
The “hERG current change (%, negative = inhibition) at 10uM” value of the first is higher: 3.85% for the first, -65.5% for the second.

First: O=C(Nc1ccnn1C1CCN(C2CCC2)CC1)c1cccc(F)c1
Second: COCCC(=O)N1CCC(Oc2ccc(C(=O)NCCCC3CCCC3)cc2)CC1
The “hERG current change (%, negative = inhibition) at 10uM” value of the first is higher: -12.5% for the first, -37.3% for the second.

First: COc1cc2[nH]c(=O)c(C(=O)NCc3ccccc3Cl)c(O)c2cc1OC
Second: CC(=O)c1c(O)c2ccccc2n(Cc2ccccc2)c1=O
The “hERG current change (%, negative = inhibition) at 10uM” value of the first is higher: 8.08% for the first, -6.56% for the second.

Compared with `CSc1ccc(CN(C)CCc2ccccn2)cc1.O=C(O)C(=O)O`, `Cc1cccc(CNC(=O)c2ccc3nc(Cc4ccccc4F)oc3c2)n1` is higher in “hERG current change (%, negative = inhibition) at 10uM” value: -64.4% for the first, -2.49% for the second.

First: O=C(Cn1cnc2ccccc21)N1CCN(S(=O)(=O)c2ccccc2)CC1
Second: S=C(Nc1ccccc1)N1CCN(Cc2ccccc2)CC1
The “hERG current change (%, negative = inhibition) at 10uM” value of the first is higher: 13.7% for the first, -4.13% for the second.

Compared with `O=C(c1ccccc1F)N(NC(=O)C(O)(c1ccccc1)c1ccccc1)c1ccccc1`, `COc1ccc(-c2nn(-c3ccccc3)cc2C(=O)NC(=S)NNC(=O)c2ccncc2)cc1` is higher in “hERG current change (%, negative = inhibition) at 10uM” value: 5.11% for the first, 8.38% for the second.

First: Cc1cc(C)cc(Nc2cc(C)nc3nc(C)nn23)c1
Second: CCn1c(C)nc2cc(C(=O)N=Nc3c(O)[nH]c4c(C)cc(C)cc34)ccc21
The “hERG current change (%, negative = inhibition) at 10uM” value of the first is lower: -14.7% for the first, 11.2% for the second.

First: CCO[C@@H]1OC(C(=O)O)=C[C@H](c2ccc3c(c2)OCO3)[C@H]1CCCO
Second: Cc1nn(CC(=O)N/N=C/c2ccc3c(c2)OCO3)c(C)c1Br
The “hERG current change (%, negative = inhibition) at 10uM” value of the first is higher: 15.7% for the first, 11% for the second.

Compared with `CCCC(C)NC(=O)c1ccccc1SC` (stereo not shown), `CCc1cc(=O)[nH]c(SCCc2ccccc2)n1` is higher in “hERG current change (%, negative = inhibition) at 10uM” value: -2.04% for the first, 11.5% for the second.

Compared with `CCN(CC)Cc1ccc(OC)c(Cl)c1.Cl`, `COc1ccc(CN2CCNCC2)c(OC)c1OC.Cl` is higher in “hERG current change (%, negative = inhibition) at 10uM” value: -32.2% for the first, 17.8% for the second.

First: O=C(COC(=O)c1cc2c(s1)CCC2)Nc1ccc(F)cc1
Second: CCOc1ccc(NC(=O)Nc2cc(C)ccc2F)cc1
The “hERG current change (%, negative = inhibition) at 10uM” value of the first is higher: 21% for the first, 1.15% for the second.

Compared with `CCN(c1ccc(C)cc1C)S(=O)(=O)c1nnc(NC(=O)C(C)(C)C)s1`, `Cc1ccc(NS(=O)(=O)c2ccc(NC(=O)CN(c3cc([N+](=O)[O-])ccc3C)S(C)(=O)=O)cc2)c(C)c1` is lower in “hERG current change (%, negative = inhibition) at 10uM” value: 19.3% for the first, -13.5% for the second.

First: Cn1c(N)c(C(=O)/C=C/c2ccccc2)c(=O)[nH]c1=O
Second: Cn1c(N)c(C(=O)COC(=O)CCCc2c[nH]c3ccccc23)c(=O)n(C)c1=O
The “hERG current change (%, negative = inhibition) at 10uM” value of the first is higher: 8.52% for the first, -2.03% for the second.

First: Cc1ccc2c(c1)N(C(=O)CCC(=O)NCCCN1CC(C)CC(C)C1)CCO2 (stereo not shown)
Second: O=C(CCc1nc(-c2ccccc2F)no1)NCCN1CCN(Cc2ccccc2)CC1
The “hERG current change (%, negative = inhibition) at 10uM” value of the first is lower: -56.2% for the first, -43.2% for the second.

Going from `Cn1c(CNS(=O)(=O)c2cccc(Cl)c2)cc(=O)n(C)c1=O` to `CC1=CCC(C(=O)O)C(C(=O)Nc2nc3ccc(S(C)(=O)=O)cc3s2)C1` (stereo not shown), the “hERG current change (%, negative = inhibition) at 10uM” value falls from 21.2% to 11.1%.

Compared with `OCCCN=C1CCCc2c1[nH]c1ccc(Cl)cc21`, `CC1(C)Cc2ccccc2-c2nc(NCCCO)[nH]c(=O)c21` is higher in “hERG current change (%, negative = inhibition) at 10uM” value: -44.2% for the first, -18.4% for the second.

Compared with `S=C(Nc1ccc(Cl)cc1)N(CCCN1CCOCC1)Cc1cccs1`, `Cc1ccc(C2C(C(=O)c3cc4ccccc4o3)=C(O)C(=O)N2CCN2CCOCC2)cc1` (stereo not shown) is higher in “hERG current change (%, negative = inhibition) at 10uM” value: -32.4% for the first, 20.7% for the second.

Going from `CCc1c(C(=O)NNC(=S)NCC(C)C)csc1C` to `O=C(NCCc1csc(-c2cccnc2)n1)c1c(F)cccc1F`, the “hERG current change (%, negative = inhibition) at 10uM” value rises from -2.45% to 11.5%.

First: O=C(O)c1cc(N/N=C/c2ccc(-c3ccc(F)cc3)o2)ccc1Cl
Second: CC(C)CC(C(=O)NCC1CCCO1)N(C(=O)Cn1nnc(-c2ccc(F)cc2)n1)c1cccc(C(F)(F)F)c1 (stereo not shown)
The “hERG current change (%, negative = inhibition) at 10uM” value of the first is higher: 1.06% for the first, -0.701% for the second.

First: CC(=O)c1c(C)nc(-c2ccc(OCC(=O)Nc3cccc(C)c3C)cc2)n1O
Second: COc1cc(-c2nc3cc(C)ccn3c2NC2CCCCC2)ccc1-c1ccc(C(C)=O)cc1.O=C(O)C(F)(F)F
The “hERG current change (%, negative = inhibition) at 10uM” value of the first is higher: 8.52% for the first, 0.767% for the second.

Compared with `Cc1c(C#N)c(N=CN(C)C)c(C(=O)c2ccccc2)n1-c1ccc(Br)cc1`, `CCOC(=O)c1ccc(-n2c(O)c(/C=N/NC(=O)C3COc4ccccc4O3)c3ccccc3c2=O)cc1` (stereo not shown) is higher in “hERG current change (%, negative = inhibition) at 10uM” value: -28.3% for the first, -7.92% for the second.

Going from `CN1CCN(c2ccc(C=O)cc2)CC1` to `O=C(/C=C/c1ccc2c(c1)OCO2)N1CCN(c2ccc(Cl)cc2)CC1`, the “hERG current change (%, negative = inhibition) at 10uM” value rises from -12.9% to 13.8%.

Compared with `Cc1cc(/C=N/n2cnnc2)c(O)c([N+](=O)[O-])c1`, `O=[N+]([O-])c1ccc(CN2CCN(c3ccc([N+](=O)[O-])cc3)CC2)cc1` is lower in “hERG current change (%, negative = inhibition) at 10uM” value: 8.57% for the first, -74.1% for the second.

Compared with `O=C1CCC(=O)N1CNc1ccccn1`, `C=CCn1c(SCC(=O)NCC2CCCO2)nc2scc(-c3ccco3)c2c1=O` (stereo not shown) is lower in “hERG current change (%, negative = inhibition) at 10uM” value: 9.12% for the first, -42.4% for the second.

Compared with `CC(C)c1ccc(C(O)Cc2nc3ccccc3n2C)cc1` (stereo not shown), `Cc1ccccc1NC(=O)C(C)Sc1nnc(-c2ccncc2)n1CC1CCCO1` (stereo not shown) is lower in “hERG current change (%, negative = inhibition) at 10uM” value: 5.77% for the first, 3.98% for the second.

Compared with `O=C1CN(C(=O)CSc2nnc(-c3ccccc3)n2Cc2ccc3c(c2)OCO3)c2ccccc2N1`, `CC(C)(C)OC(=O)N1CCC2(CC1)Oc1ccc(F)cc1C(=O)C21CC(c2cccnc2)=NO1` (stereo not shown) is higher in “hERG current change (%, negative = inhibition) at 10uM” value: -24.2% for the first, 2.26% for the second.
